Measurements reported in the antibiotic and cytotoxicity screens of Wong et al. (2023).
The list shows a part of the results.

tested on: HSkMC (human skeletal muscle cells); assay: cytotoxicity call (relative viability < 0.9); settings: 10 µM

Row | SMILES | cytotoxicity call
1 | C[C@@H]1CCCCO[C@H](CN(C)C(=O)Cc2ccccc2)[C@H](C)CN([C@H](C)CO)C(=O)c2cc(NS(=O)(=O)c3cccs3)ccc2O1 | inactive
2 | CO[C@@H]1CN(C)C(=O)c2cc(NS(=O)(=O)CC(F)(F)F)ccc2OC[C@@H](C)N(C(=O)c2ccc3c(c2)OCO3)C[C@@H]1C | inactive
3 | COCC(=O)N1C[C@H](C)[C@H](OC)CN(C)C(=O)c2cc(NC(=O)Nc3ccccc3)ccc2OC[C@@H]1C | inactive
4 | O=C(C[C@@H]1CC[C@@H]2[C@H](COC[C@@H](O)CN2Cc2cccc(C(F)(F)F)c2)O1)NCCc1ccncc1 | inactive
5 | C[C@@H]1CN([C@H](C)CO)C(=O)c2cccc(NC(=O)Nc3ccc4c(c3)OCO4)c2O[C@@H]1CN(C)S(C)(=O)=O | inactive
6 | C[C@@H]1CN([C@H](C)CO)C(=O)c2cc(NC(=O)Nc3cccc4ccccc34)ccc2O[C@H]1CN(C)Cc1ccc(-c2ccccc2)cc1 | inactive
7 | Cc1noc(C)c1NC(=O)Nc1ccc2c(c1)C(=O)N([C@H](C)CO)C[C@H](C)[C@H](CN(C)Cc1ccncc1)OCCCC[C@H](C)O2 | inactive
8 | COc1ccc2c3c(n(c2c1)C)[C@@H](CO)N(C[C@]13CN(C1)C(=O)C1CC1)C(=O)CN1CCOCC1 | inactive
9 | CC=Cc1ccc2n(c1=O)C[C@H]1[C@H](CO)[C@@H](C(=O)NCC3CC3)[C@@H]2N1S(=O)(=O)c1cn(C)cn1 | inactive
10 | C[C@@H]1CN([C@H](C)CO)S(=O)(=O)c2ccc(-c3cncnc3)cc2O[C@H]1CN(C)C(=O)C1CCCCC1 | inactive
11 | C[C@@H]1CCCCO[C@H](CN(C)C(=O)C2CCCCC2)[C@H](C)CN([C@H](C)CO)C(=O)c2cc(NC(=O)Nc3ccccc3)ccc2O1 | inactive
12 | Cc1ccc(S(=O)(=O)N2C[C@@H](O)COC[C@H]3O[C@@H](CC(=O)NCCCN(C)C)CC[C@@H]32)cc1 | inactive
13 | C[C@@H]1CCCCO[C@@H](CN(C)C(=O)Nc2cccc3ccccc23)[C@H](C)CN([C@@H](C)CO)C(=O)c2cc(NS(=O)(=O)c3cccs3)ccc2O1 | inactive
14 | O=C(O)CNC(=O)CNC(=O)Cn1nc(-c2ccccc2)ccc1=O | inactive
15 | Cc1noc(C)c1NC(=O)N(C)C[C@@H]1Oc2c(NS(C)(=O)=O)cccc2C(=O)N([C@H](C)CO)C[C@@H]1C | inactive
16 | C[C@H](CO)N1C[C@H](C)[C@@H](CN(C)C(=O)CN2CCOCC2)Oc2cc(/C=C/c3ccccc3)ccc2S1(=O)=O | inactive
17 | COc1ccc(NC(=O)N2CCCCN3[C@H](CN(C)C(C)=O)[C@H](c4ccc(C#Cc5ccccc5)cc4)[C@@H]3C2)cc1 | active
18 | Cc1noc(C)c1NC(=O)Nc1ccc2c(c1)CC(=O)N([C@@H](C)CO)C[C@H](C)[C@H](CN(C)S(=O)(=O)c1cccs1)O2 | inactive
19 | C[C@@H]1CN([C@@H](C)CO)S(=O)(=O)c2ccc(-c3ccccc3F)cc2O[C@H]1CN(C)S(C)(=O)=O | inactive
20 | COc1cccc(S(=O)(=O)N2C[C@H](O)COC[C@H]3O[C@@H](CC(=O)N4CCOCC4)CC[C@@H]32)c1 | inactive
21 | CNC(=O)CC1CCNCC1 | inactive
22 | Cc1noc(C)c1S(=O)(=O)Nc1ccc2c(c1)C(=O)N([C@@H](C)CO)C[C@H](C)[C@@H](CN(C)Cc1ccccc1)OCCCC[C@@H](C)O2 | inactive
23 | CCCCC/C=C/CCC(=O)N[C@H]1[C@H](Oc2c3cc4cc2Oc2ccc(cc2Cl)[C@@H](O[C@@H]2O[C@H](CO)[C@@H](O)[C@H](O)[C@H]2NC(C)=O)[C@@H]2NC(=O)[C@H](NC(=O)[C@@H]4NC(=O)[C@H]4NC(=O)[C@@H](Cc5ccc(c(Cl)c5)O3)NC(=O)[C@H](N)c3ccc(O)c(c3)Oc3cc(O)cc4c3)c3ccc(O)c(c3)-c3c(O[C@H]4O[C@H](CO)[C@@H](O)[C@H](O)[C@@H]4O)cc(O)cc3[C@@H](C(=O)O)NC2=O)O[C@H](CO)[C@@H](O)[C@@H]1O | inactive
24 | COc1ccc(S(=O)(=O)N2C[C@H](O)COC[C@H]3O[C@H](CC(=O)N[C@H]4CCN(Cc5ccccc5)C4)CC[C@@H]32)cc1 | inactive
25 | C[C@H]1CN([C@@H](C)CO)C(=O)c2cccc(NC(=O)Nc3ccc(F)cc3)c2O[C@@H]1CN(C)Cc1ccc(C(=O)Nc2ccccc2N)cc1 | inactive
26 | C[C@H](CO)N1C[C@H](C)[C@H](CN(C)Cc2ccc(Oc3ccccc3)cc2)Oc2cc(Br)ccc2S1(=O)=O | inactive
